The values that follow come from the RNAGym collection of RNA variant scans (doi:10.1093/nar/gkz1192).

Read counts are not given, so values of variants with three or more changes are uncertain.

B1: CPEB3 Ribozyme (parent)
chain: UAACAGGGGGCCACAGCAGAAGCGUUCACGUCGCAGCCCCUGUCAGAUUCUGGUGAAUCUGCGAAUUCUGCUGUAUAUCUC

Variants of B1 are the subject of this data set. Put plainly: self-cleavage, relative activity (ratio to wild type); higher = more cleavage; in vitro, sequencing. Put shortly:
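After error-prone PCR and barcoding, CPEB3 ribozyme mutant libraries were transcribed with T7 RNA polymerase at 37°C for 5 hours, then given 15 min with DNase I before an EDTA stop, and they cleaved during both steps. Reverse transcription with template switching preceded Illumina sequencing. Relative activity divides a variant's cleaved/total read fraction by the unmutated ribozyme's. At least 5 reads were required per variant, and three batches were averaged.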
In the case of UAACAGGGAGCCACAGCAGAAGCGUUCACGUCGCAGCCCCUGUCAGAUUCUGGUGAAUCUGCGAAUCCUGCUGAAUAUCAC, the self-cleavage stood at 0.03. In the case of UAACAGGGAGCCACAGCAGAAGCGUUCACGUCGCAGCCCCUGUCAGAUUCUGGUGAAUCUGCGAAUCCUGCUGUAUUUCUC it was 0.07; in that of UAACAGGGAGCCACAGCAGAAGCGUUCACGUCGCAGCCCCUGUCAGAUUCUGGAGAAUCAGCGAAUUCCGCUGUAUAUCUC, 0.31; in that of UAACAGGGAGCCACAGCAGAAGCGUUCACGUCGCAGCCCCUGUCAGAUUCUGGAGAAUCUGCGAAUUCAGCUGUAUAUCUC, 0.2. Consider UAACAGGGAGCCACAGCAGAAGCGUUCACGUCGCAGCCCCUGUCAGAUUCUGGUGAACCUGCGAAUUCUGCUGUAUCUCUC, for which the self-cleavage came to 0.06. On to UAACAGGGAGCCACAGCAGAAGCGUUCACGUCGCAGCCCCUGUCAGAUUCUGGUGAAUCCGCGAAUUCUGCUGUAUUUCUC, for which the self-cleavage is 0.22. For UAACAGGGCGCCACGGCAGAAGCGUUCACGUCGCAGCCCCUGUCGGAUUCUGGUGAAUCUGCGAAUUCUGCUGUAUGUCUC the value was 0.32; for UAACAGGGCGCUACAGCAGAAGCGUUCACGUUGCAGCCCCUGUCAGAUUCUGGUGAAUCUGCGAAUUCUGCUGUAUAUCUC, 0.05; for UAACAGGGCGCCACAGCAGUAGCGUUCACGUCGCAGCCCCUGUCAGAUUCUGGUGAAUCUGCGAAUUCUGCUGUAUACCUC, 0.51. Consider UAACAGGGCGCUACAGCAGAAGCGUUCACGUCGCAUCCCCAGUCAGAUUCUGGUGAAUCUGCGAAUUCUGCUGUAUGUCUC, for which the self-cleavage is 0.04. For UAACAGGGAGCCACAGCAGAAGCGUUCACGUCGCAGCCCCUGUCAGAUUCCGGUGAAUCUGCGAAUCCUGCUGUACAUCUC, the self-cleavage amounted to 0.18. In the case of UAACAGGGCGCCACAGCAGAUGCGUUCGCGUCGCAGCCCCAGUCAGAUUCUGGUGAAUCUGCGAAUUCUGCUGUAUUUCCC it was 0.05; in that of UAACAGGGCGCCGCGGCAGAAGCGUUCAUGUCGCAGCCCCUGUCAGAUUCCGGUGAAUCUGCGAAUUAUGCUGUAUAUCUC, 0.28.

UAACAGGGAGCCACAGCAGAAGCGUUCACGUCGCAGCCCCUGUCAGAUCCUGGCUAAUCUGCGAAUUCUGCUGUAUAUCUC: the self-cleavage was 0.16.

As for UAACAGGGAGCCACAGCAGAAGCGUUCACGUCGCAGCCCCUGUCAGAUUCUGGCGAAUCCGCGAGUUCUGCUGUAUAUCUC, the self-cleavage worked out at 0.39. In the case of UAACAGGGCGCCACGACAGAAGCGUUCACGCCGCUGCCCCAGUCAGGUUCUGGUGAAUCUGCGAAUUCUGCUGUAUAUCUC it was 0.03; in that of UAACAGGGCGCCACAGCAGAAGCGUUCACGUCGCAGCCCUUGUCAGAUUCUGGUGAAUCUGCGAAUCCUGCUGUAUAUCUC, 0.14.

For the variant UAACAGGGCGCCACAGCAGGAGCGUUCACGUCGCAGCCUCUGUCAGAUUCUGGUGAAUCUGCGGAUUCCGCAGUAUAUCUC, the self-cleavage was 0.1. For the variant UAACAGGGAGCCACAGCAGAAGCGUUCACGUCGCAGCCCCUGUCAGAUUCGGGUGAAUCUGCGAGUUCUGCCGUACAUCUC, the self-cleavage was found to be 0.05. In the case of UAACAGGGCGCCACAGCAGAAGCGUUCACGUCGCAGCCCCUGUCAGAUUCUGGUGUAUCUGCGAUUCCUGCUGUAUAUCUC it was 0.11; in that of UAACAGGGAGCCACAGCAGAAGCGUUCACGUCGCAGCCCCUGUCAGAUUCUGGUGAAACUGCGAAUUCUGCCGUAUAUCUC, 0.15; in that of UAACAGGGCGCCACAGCAGAGGCGUUCACGUCGCAGCCCCUGUCAGAUUCUGGUGAAUCUGCGAAUCCUGCUGUAUAUCUC, 0.18. Consider UAACAGGGAGCCACAGCAGAAGCGUUCACGUCGCAGCCCCUGUCAGAUUCUGGUGAAUCUGCGAACUCAGCUGUAUAUCUC, for which the self-cleavage was 0.32. As for UAACAGGGCGCCAUAGCAGAAGCGUUCACGUCGCAGCCCCUGUCAGAUUCUGGUGAAUCUGCGAAUUCUGCUGUGUAUCUA, the self-cleavage was 0.04.

With UAACAGGGCGCCAUAGCAGAAGCGUUCGCGUCGCAGCCCCAGUCAGAUUCUGGUGAAUCUGCGAAUUCUGCUGUGUAUCUC, the self-cleavage stood at 0.06. In the case of UAACAGGGCGCCACAGCAGAAGCGUUCACGUCGCUGCCCCUGUCAGAUUCUGGUGUAUCUGCGAAUUCUGCUGUAUAUCUC, the self-cleavage came out at 0.

Turning to UAACAGGGCGCCACAGCAGAAGCGUUCACGUCGCAGCCCCUGUAAGAUUCUGGUGAAUCUGCGUAUUCUGCUGUAUGUCUC, the self-cleavage amounted to 0.04.

Regarding UAACAGGGAGCCACAGCAGAAGCGUUCACGUCGCAGCCCCUGUCAGAUUCUGGUGAAUCUGCGAAUACUGCAGUAUGUCCC, the self-cleavage stood at 0.11. UAACAGGGCGCCACAGCAGAAGCGUUCACGUCGCGGCCCCUGUCAGGUUCUGGUGAAUCUGCGAAUUCAGCUGUAUACCCC: the self-cleavage worked out at 0.07. For UAACAGGGAGCCACAGCAGAAGCGUUCACGUCGCAGCCCCUGUCAGAUUCCGGUGAAACUGCGAAUUCUGCCGUAUAUCUC the value was 0.07; for UAACAGGGCGCCACAGCAGGAGCGUUCACGCCGCAGCCCCUGUCGGAUUCUGGUGAACCUGCGAAUUCUGCUGUAUAUCAC, 0.03. For UAACAGGGCGCCACAGCGGAAGCGUCCACGUCGCAGCCCCUGACUGAUUCUGGUGAAUCUGCGAAUACUGCUGUAUAUCUU the value was 0.26. In the case of UAACAGGGCGCCACAGCAGUAGCGUUCACGUCGCAGCCCCUGUCAGAUUCUGGCGAUUCUGCGAUUUCUGCUGUAUAUCUC it was 0.05. On to UAACAGGGCGCCACAGCAGAUGCGUUCGCGUCGCAGCCCCUGUCGGAUUCUGGUGAAUCUGCGAACUCUGCUGUAUAUCUC, for which the self-cleavage amounted to 0.04. For UAACAGGGAGCCACAGCAGAAGCGUUCACGUCGCAGCCCCUGUCAGAUUCUGGAGAAUCAGCGAAUUCUGCUGUAUAUCUC the value was 0.17.

In the case of UAACAGGGCGCCACGGCAGAAGCGAUCACGUCGCAGCCCCUGUCAGAUUCUGGUGAAUCUGCGAAUUCAGCUGUGUAUCUC, the self-cleavage was determined as 0.05. As to UAACAGGGCGCCACAGCAGAAGCGUUCACGUCGCGGCCCCCGCCAGAUUCUGGUGAAUCUGCGAAUUCUGCUGUAUACCUC, the self-cleavage amounted to 0.32. Regarding UAACAGGGCGCCACUGCAGAAGCGUACACGUCGCAGCCCCAGCCAGAUUCUGGUGAAUCUGCGAAUUCUGCUCUAUAUCUU, the self-cleavage was 0.06.

With UAACAGGGAGCCACAGCAGAAGCGUUCACGUCGCAGCCCCUGUCAGAUCCUGGUUAUUCUGCGAAUUCUGCUGUAUACCUC, the self-cleavage came out at 0.09. In the case of UAACAGGGAGCCACAGCAGAAGCGUUCACGUCGCAGCCCCUGUCAGAUUCUGGUGAACCAGCGAAUUCUGCUGUAUAUCUC it was 0.06; in that of UAACAGGGCGCCACAGCGGAAGCGUUCACGUCGCAGCCCCUGUCAGAUUCUGGUGAAUCUGCGGACUCUGCUGUAUAUCUC, 0.06. With UAACAGGGAGCCACAGCAGAAGCGUUCACGUCGCAGCCCCUGUCAGAUUCAGGUGAAUCUGCGAAUUCUGCGGUGUAUCUC, the self-cleavage was found to be 0.31. UAACAGGGCGCCACAGCGGAAGCGUCCACGUCGCAGCCCCUGUCAGAUUCUGGUGAAUCUGCGAAUACUGCUGUAUAUCUC: the self-cleavage came out at 0.06. For UAACAGGGCGCUACAGCAGAAGCGUUCACGUCGCAGCCCCUGUCAGAUUCUGGUGAAUCUGCGUAUUCUGCUGUAUAUCCC the value was 0.11. In the case of UAACAGGGCGCCACGGCAGAAGCGUUCACGUCGCAGCCCCUGGCAGAUUCUGGUGAAUCUGCGGAUUCUGCUGUAUAUCUC it was 0.07; in that of UAACAGGGCGCCACAGCGGAAGCGUUCACGUCGCAGCCCAUGUCAGAUUCUGGUGAAUCUGCGAAUUCUGCUGUAUAUCCC, 0.04; in that of UAACAGGGCGCCACAGCAGAAGCGUUCACGUCGCAGCCCUCGUCAGAUUCUGGUGAAUCUGCGAAUUCUGCUGUAUAUCUC, 0.07.

Turning to UAACAGGGAGCCACAGCAGAAGCGUUCACGUCGCAGCCCCUGUCAGAUUCUGGUGAAUCUGCGAAUACUGCAGUAUGUCUC, the self-cleavage was 0.06. On to UAACAGGGCGCCACAGCAGGAGCUUUCACGUCGCAGCCUCUGUCAGAUUCUGGUGAAUCUGUGAAUUCUGCAGUAUAUCUC, for which the self-cleavage amounted to 0.05. In the case of UAACAGGGCGCCACGGCGGAAGCGUUCACUUCGCAGCCCCUGUCAGAUUCAGGUGAAUCUGCGAAUUCUGCUGUAUAUCUC it was 0.06; in that of UAACAGGGCGGCACAGCAGAAGCGUUCACGUCGCAGCCCCUGUCUGAUUCUGGUGAAUCUGCGAAUUCUGCGGUAUAUCUC, 0.16. Consider UAACAGGGAGCCACAGCAGAAGCGUUCACGUCGCAGCCCCUGUCAGAUUCUGGUGAAUCUGCGAAUCCUGCUGUAUAUCCC, for which the self-cleavage was 0.2. In the case of UAACAGGGCGCCACAGCAGGAGCGUUCACGUCGCAGCCCCUGUCAGAUUCUGGUGGAUCUGCGGAUUCUGCUGUAUAUCUC it was 0.05; in that of UAACAGGGCGCCUCAGCAGAAGCGUUCACGUCGCAGCCCCUGUCAGAUUCUGGUGAAUCCGCGAAUUCUGCUGUAUAUCUC, 0.11. As for UAACAGGGCGCCACGGCAGAAGCGUUCACGUCGCAGCCCCUGUCAGAUUCGGGUGGGUCUGCGAAUUCUGCUGUAUAUCUC, the self-cleavage came out at 0.25. For UAACAGGGAGCCACAGCAGAAGCGUUCACGUCGCAGCCCCUGUCAGAUUCCGGUGAAUCUGCGAACUCUGCUGUAUAUCUC the value was 0.07; for UAACAGGGAGCCACAGCAGAAGCGUUCACGUCGCAGCCCCUGUCAGAUUCUGGUGAAUCCGCGAGUUCUGCUGUAUAUCCC, 0.1. For UAACAGGGCGCCACAGCAGAAGCGUUCACGUCGCAGCCCCUGUCUGAUUCUGGAGUAUCUGCGAAUUCUGCUGUAUAUCUC the value was 0.05; for UAACAGGGCGCCACAGCAGAAGUGUUCGCGUCGCCGCCCCUGUCAGAUUCUGGUGAAUCUGCGAUUUCUGCUGUAUAUCUC, 0.12. For UAACAGGGAGCCACAGCAGAAGCGUUCACGUCGCAGCCCCUGUCAGAUUCUGGUGAAUCUGCGAAUUCUGCAGUAUAUCCC the value was 0.13; for UAACAGGGAGCCACAGCAGAAGCGUUCACGUCGCAGCCCCUGUCAGAUCCUGGUGAAUCUGCGAAUUCUGCUGUAUGUCUC, 0.31.

As to UAACAGGGCGCCACAGCAGAAGCGUUCACGUCGCUGCCCCUGUCAGAUUCUGGUGAAUCUGCGAAUCCAGCUGUAUAUCUC, the self-cleavage was found to be 0.11. In the case of UAACAGGGCGCCACAGCAGUAGCGUCCACGUCGCAGCCCCUGUCAGAUUCUGGUGAAUCUGCGAAUUCUGCUGUAUAUCCC it was 0.07. For the variant UAACAGGGAGCCACAGCAGAAGCGUUCACGUCGCAGCCCCUGUCAGAUUCUGGUGAAUCAGCGAAUUCUGCUGUACAUCUC, the self-cleavage was 0.4. On to UAACAGGGAGCCACAGCAGAAGCGUUCACGUCGCAGCCCCUGUCAGAUCCAGGCGAAUCUGCGAAUUCUGCUGUAUAUCUC, for which the self-cleavage worked out at 0.07.

In the case of UAACAGGGCGCCACAGCUGAAACGCUCACGUCGCAGCCCCUGUCAGAUUCUGGUGAAUCUGCGAAUUCUGCUGCAUAUCUC, the self-cleavage is 0.04.

For UAACAGGGCGCCACAGCUGAAGCGCUCACGUCGCAGCCCCUGUCAGAUCCUGGUGAAUCUGCGAAUCCCGCCGUAUAUCUC, the self-cleavage turned out to be 0.02.

As for UAACAGGGCGCCACAGCAGAAGCGUUCACGUCGCUGCCCCUGUCAGAUUCUGGCGAAUCUGCGAAUUCUGCCGUAUAUCUC, the self-cleavage worked out at 0.08.
